# The whole screen tested about 390,000 compounds, of which about 17,000 (4.4%) were called active. Inconclusive means that the source gave no clear call. Such entries were picked first, then a sample of the others. Calls follow the shape of the dose curve; as a rule, active = well fitted inhibition curve with a large enough effect; inconclusive = small, poorly fitted or top-dose-only effect; inactive = no such curve, though single readings can be large or run the other way. Potencies of inconclusive entries are doubtful fits and often do not repeat.
# Target: Lysine-specific demethylase 4A (Homo sapiens) (UniProt O75164)
# Test: qHTS Assay for Inhibitors of JMJD2A-Tudor Domain; also: nearly all actives have a fitted effect of over 50% in size
# Details: AlphaScreen JMJD2A-Tudor / H3K4me3 peptide binding; activity change, negative = inhibition: at 114 µM (top of the series)
# % is scaled to controls: 0 for no effect and ±100 for the full control effect; potency is read from the fitted curve at half-maximal effect; tags tell the direction and shape of the fitted curve.
# Chain of UniProt O75164 (O75164 whole entry, looked up, the tested form may be a part): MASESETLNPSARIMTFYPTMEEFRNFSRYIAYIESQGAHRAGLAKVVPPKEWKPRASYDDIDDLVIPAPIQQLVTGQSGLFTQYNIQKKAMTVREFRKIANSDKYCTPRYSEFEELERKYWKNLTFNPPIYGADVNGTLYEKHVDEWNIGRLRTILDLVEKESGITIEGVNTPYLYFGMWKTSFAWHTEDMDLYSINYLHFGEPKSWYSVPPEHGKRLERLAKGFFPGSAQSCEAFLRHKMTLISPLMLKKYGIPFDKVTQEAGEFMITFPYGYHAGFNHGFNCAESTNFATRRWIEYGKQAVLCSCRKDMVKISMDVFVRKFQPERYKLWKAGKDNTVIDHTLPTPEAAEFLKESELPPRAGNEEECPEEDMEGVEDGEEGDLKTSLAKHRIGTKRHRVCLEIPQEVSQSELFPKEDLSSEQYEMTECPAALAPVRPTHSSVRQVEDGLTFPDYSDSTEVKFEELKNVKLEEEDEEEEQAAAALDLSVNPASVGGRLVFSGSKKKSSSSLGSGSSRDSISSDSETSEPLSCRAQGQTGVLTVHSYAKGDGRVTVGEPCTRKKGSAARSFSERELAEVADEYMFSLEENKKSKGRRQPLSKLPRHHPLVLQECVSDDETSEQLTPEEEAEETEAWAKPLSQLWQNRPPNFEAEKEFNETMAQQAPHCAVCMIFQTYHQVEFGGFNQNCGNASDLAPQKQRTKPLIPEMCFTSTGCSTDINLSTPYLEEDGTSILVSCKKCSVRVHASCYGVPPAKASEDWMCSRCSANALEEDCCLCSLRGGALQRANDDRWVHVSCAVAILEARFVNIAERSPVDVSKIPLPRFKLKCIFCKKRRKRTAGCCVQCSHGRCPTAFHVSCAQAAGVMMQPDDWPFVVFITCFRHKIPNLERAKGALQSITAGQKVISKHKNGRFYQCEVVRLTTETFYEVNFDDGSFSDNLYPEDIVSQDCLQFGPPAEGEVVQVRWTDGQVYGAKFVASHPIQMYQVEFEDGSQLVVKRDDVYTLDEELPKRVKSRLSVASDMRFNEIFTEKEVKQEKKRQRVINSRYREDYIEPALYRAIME
Compound,Potency,"activity change, negative = inhibition"
CCc1ccccc1-n1c(-c2ccncc2)n[nH]c1=S,active: 10 µM,
CCN(c1ccccc1)S(=O)(=O)c1ccc(Cl)c(NC(=O)CSc2n[nH]c(N)n2)c1,,inactive: -35%
CCC(=O)NC1=C(Cl)C(=O)C(NC(=O)CC)=C(Cl)C1=O,active: 3.98 µM,
O=C(c1ccc2c(c1)OCCO2)N(Cc1cccnc1)c1nc2ccc(F)cc2s1,,inactive: -12.3%
CC(C)CC(=O)Nc1ccc(C(=O)CN2CCN(c3ccc(O)cc3)CC2)cc1,"inconclusive: 56.2 µM [inhibitor, partial curve, poor fit]",
CC(=O)Nc1ccc(S(=O)(=O)Nc2ccc(N3CCCCC3)cc2)cc1,active: 20 µM,
COc1ccc(-c2cc(-c3ccccc3)c(C#N)c(SCC(O)CS(=O)(=O)Cc3ccccc3)n2)cc1 (configuration not stated),,inactive: -0.654%
CC(=O)c1ccc(N2CCN(C(=O)COc3ccccc3F)CC2)c(F)c1,"inconclusive: 79.4 µM [inhibitor, partial curve]",
CCOc1ccc2c(c1)c(N=Nc1cccc(C(=O)O)c1)c(O)n2C,"inconclusive: 44.7 µM [inhibitor, single point]",
O=C(Nc1n[nH]c(=S)s1)c1ccco1,active: 3.55 µM,
CC1(OC(=O)C2CCCC2)C(=O)C=C2C=C(c3ccc(C#N)cc3)OC=C2C1=O (configuration not stated),"inconclusive: 50.1 µM [inhibitor, partial curve]",
CC(=O)C1=C(O)C(=O)N(CCC(=O)O)C1c1ccc(Cl)cc1Cl (configuration not stated),"inconclusive: 89.1 µM [inhibitor, single point]",
CN=c1scc(C)n1/N=C/c1ccc(O)c(O)c1O,active: 50.1 µM,
COc1cccc(CN(C(=O)COc2ccccc2[N+](=O)[O-])C2CCS(=O)(=O)C2)c1 (configuration not stated),"inconclusive: 17.8 µM [inhibitor, partial curve, poor fit]",
COc1cc(O)c(NC(C)=O)c2nonc12,,inactive: -35.5%
CCOC(=O)/C(C(N)=NCc1ccco1)=C(/O)c1ccccc1,"inconclusive: 89.1 µM [inhibitor, partial curve]",
COc1ccc(Nc2nc(-c3ccncc3)nc3ccccc23)cc1,,inactive: 3.52%
Cc1ccc(N2CC(C(=O)Nc3nnc(SCC(N)=O)s3)CC2=O)cc1 (configuration not stated),,inactive: -15.4%
CCCn1c(=O)c2ccccc2n2c(SCC(=O)c3ccccc3)nnc12,active: 25.1 µM,
O=C1c2c(Br)c(Br)c(Br)c(Br)c2C(=O)N1c1ccccn1,"inconclusive: 79.4 µM [inhibitor, partial curve]",
Cc1ccc(-n2cc3c(c2-c2ccccc2Br)c(=O)n(C)c(=O)n3C)cc1N,"inconclusive: 50.1 µM [inhibitor, partial curve]",
COC(=O)[C@@]1(C)[C@H]2C(=O)N(Cc3ccccc3)C(=O)[C@H]2[C@H]2CN(C)C(=NC3CCCCC3)N21,"inconclusive: 79.4 µM [inhibitor, partial curve]",
O=C(COC(=O)c1ccccc1O)NCCCc1ccccc1,active: 79.4 µM,
CCOc1cc(/C=N/Nc2nc(Nc3ccccc3)nc(N3CCCCC3)n2)ccc1OCC(=O)O,"inconclusive: 79.4 µM [inhibitor, partial curve]",

Compound,Potency,"activity change, negative = inhibition"
COc1cccc(/C=N/NC(=O)Cn2cnc3c2c(=O)n(C)c(=O)n3C)c1,active: 56.2 µM,
COCCOC(=O)C1=C(C)OC(N)=C(C#N)C1c1cc2cccc(C)c2nc1Cl (configuration not stated),,inactive: -22.7%
COC(=O)c1ccc(C2C=C(c3ccc(Cl)cc3)Nc3nc4ccccc4n32)cc1 (configuration not stated),,inactive: -28.8%
C=CCn1c(SCC(=O)NC2CC2)nc2sc(CC)cc2c1=O,"inconclusive: 14.1 µM [inhibitor, full curve, poor fit]",
O=c1cnnc(Nc2ccc(Cl)c(C(F)(F)F)c2)[nH]1,,inactive: -7.64%
Cc1ccc(C(=O)NCC(=O)NCCCc2ccccc2)cc1,,inactive: -5.3%
O=C(CSc1nc(-c2ccc(F)cc2)nc2c1Cc1ccccc1O2)Nc1cccc(C(=O)O)c1,active: 10 µM,
O=c1[nH]c(CSc2ncn[nH]2)nc2ccccc12,"inconclusive: 28.2 µM [inhibitor, partial curve]",
O=C(C1CCN(Cc2ccccc2)CC1)N1CCN(C/C=C/c2ccccc2)CC1,"inconclusive: 0.891 µM [inhibitor, full curve, poor fit]",
Cc1cccc(C)c1NC(=O)CCS(=O)(=O)c1ccc(Br)cc1,,inactive: -9.09%
CC(/C=N/NC(=O)c1cc(-c2ccccc2)nc2ccccc12)=C\c1ccco1,"inconclusive: 39.8 µM [inhibitor, partial curve]",
COc1ccccc1C(=O)NNC(=O)C(=O)NCc1ccccc1,"inconclusive: 4.47 µM [inhibitor, single point]",
C=CCc1cccc(/C=N/n2c(C)nnc2C)c1O,"inconclusive: 28.2 µM [inhibitor, partial curve]",
CN(C)c1ccc(N=Nc2cccc(F)c2)cc1,active: 8.91 µM,
C/C(=N\NC(=O)c1nnn(-c2nonc2N)c1-c1ccc2c(c1)OCO2)c1ccccc1,,inactive: -1.5%
COC(=O)NC(NC(=S)Nc1ccc([N+](=O)[O-])cc1)C(Cl)(Cl)Cl (configuration not stated),"inconclusive: 56.2 µM [inhibitor, partial curve]",
CCC1CN(C(=O)Nc2ccccc2C(F)(F)F)c2ccccc2O1 (configuration not stated),,inactive: -31.9%
O=C1CC(c2ccccc2)CC(O)=C1C=Nc1ccccc1 (configuration not stated),"inconclusive: 50.1 µM [inhibitor, partial curve]",
Cc1ccc(C(=O)NC(=S)Nc2ccccc2C(F)(F)F)cc1,"inconclusive: 79.4 µM [inhibitor, partial curve]",
COCCN1C(=O)C(=O)/C(=C(/O)c2ccc(S(=O)(=O)N3CCCCC3)cc2)C1c1ccc(O)c(OC)c1 (configuration not stated),active: 89.1 µM,
Cc1cnc(CNC(=O)c2ccc3oc(Cc4ccccc4)nc3c2)[nH]1,"inconclusive: 50.1 µM [inhibitor, partial curve, poor fit]",
COc1ccc(N2CCN(c3ccc(N4C(=O)CC(C)C4=O)cc3[N+](=O)[O-])CC2)cc1 (configuration not stated),"inconclusive: 56.2 µM [inhibitor, partial curve]",
Cc1ccc2c(c1)c(=O)c(C(=O)c1ccccc1)cn2Cc1ccccc1F,"inconclusive: 56.2 µM [inhibitor, partial curve, poor fit]",
